Sequences with one replicate were seen in a single cluster, so their values are uncertain.
These sequences were tested on ATP (assay: switch fluorescence ratio, 500 uM ATP over buffer (Cy3 cluster intensity, sum of 5 cycles each) (fold (ratio)); higher = stronger signal-on switching upon ATP binding; sequences stand for … in TCGTCGGCAGCGTCAGATGTGTATAAGAGACAGTTTTTTTTTTTTTTTTTTTTTTTTT…TC). Conditions: aptamer strand: ATP DNA aptamer (quencher-CACCTGGGGGAGTATTGCGGAGGAAGG + anchor), 100 nM annealed; ATP concentration: 500 uM; one replicate.
Outline: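 Between each of five buffer/ATP cycles, the flow-cell was stripped with NaOH and re-annealed. Each cycle imaged Cy3-labelled switching-strand clusters, annealed to 100 nM quencher-labelled ATP aptamer on a modified Illumina MiSeq flow-cell, first in selection buffer and then after 15 min with 500 uM ATP at 22 °C. The fluorescence ratio is summed target-cycle over summed buffer-cycle Cy3 intensity per cluster, averaged per switch-domain sequence, with clusters outside 100-1000 RFU excluded.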
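Further: ATP exposure 15 min at 22 °C before imaging.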

Sequence	switch fluorescence ratio
GATCTAGGTT	0.998
GATCTATAAT	1.04
GATCTATTGG	1.01
GATCTGATGG	0.949
GATCTTCAGG	1.02
GATCTTGCT	0.967
GATGAAACAG	1.01
GATGAAGTAG	1.01
GATGACACAG	0.976
GATGACCTT	1.27
GATGAGCAGC	1.03
GATGAGCTTC	0.995
GATGATGACT	0.986
GATGCACTGT	1.04
GATGCAGGTA	1.01
GATGCAGTT	1.04
GATGCATATG	1.06
GATGCCATGT	0.972
GATGCCCCGA	0.986
GATGCCTTAG	0.983
GATGCGCGGG	0.971
GATGCTCAGG	1.06
GATGCTTCCT	1.23
GATGGAACC	1.05
GATGGAGG	0.984

Sequence	switch fluorescence ratio
GATGGATGCT	1.02
GATGGCTTCT	1.04
GATGGGAAGC	0.972
GATGGGATAC	2.14
GATGGGATCT	0.966
GATGGGCAT	1.04
GATGGTCAAT	1.01
GATGGTGTT	1
GATGGTTAGC	0.994
GATGTAAGGG	1.01
GATGTATGCA	0.98
GATGTCAAGC	1.03
GATGTCAATT	1.01
GATGTCCGTT	1
GATGTCCTAA	1.02
GATGTGTATC	0.981
GATGTGTTCA	1.01
GATGTTGAAA	0.989
GATTAACCAA	1
GATTAATCTT	1.01
GATTACAGT	1.02
GATTACCTTC	1.44
GATTAGCGT	1
GATTATCCGG	1.01
GATTATCGCA	1.01

Sequence	switch fluorescence ratio
GATTATTCTA	0.992
GATTCATGAT	0.89
GATTCCTTCT	1.07
GATTCTAATT	0.99
GATTGAACTT	1.03
GATTGAGCAC	1.02
GATTGCAACA	1.01
GATTGCAGCA	0.966
GATTGCGGAA	1.01
GATTGCGGGA	0.978
GATTGGCAGG	1.02
GATTGTAGGG	0.998
GATTGTGAAC	1.03
GATTGTGAG	0.952
GATTTATTAA	0.979
GATTTCGG	0.989
GATTTCTGTG	0.966
GATTTGAGTT	0.985
GATTTGATCA	0.999
GATTTGGTTC	0.958
GATTTGTCGA	0.964
GATTTTATAG	0.943
GCAAAAAGTA	0.976
GCAAAAGTAC	1.06
GCAAAATGC	1

Sequence	switch fluorescence ratio
GCAAAGGACC	1.4
GCAAAGTCGT	1.03
GCAACCCCGG	1.08
GCAACCGGAT	1.01
GCAAGCCCTG	0.986
GCAAGCGATA	1.53
GCAAGCTCCT	2.9
GCAAGGACCA	1.05
GCAAGGTCGG	0.995
GCAAGTAGCT	0.981
GCAAGTAGTG	1.05
GCAAGTTTCT	1.02
GCAATCTATC	1.51
GCAATGATGA	1.03
GCAATGCCGG	0.991
GCAATGCTTC	5.01
GCAATGGCGG	1.04
GCAATTGCGC	1.03
GCACAATTGG	0.976
GCACAGTCGC	1.01
GCACATACGT	1.74
GCACATATAC	1.67
GCACATGGAC	1.15
GCACATGGGA	0.998
GCACCACACT	1.29

Sequence	switch fluorescence ratio
GCACCATAGG	0.993
GCACCCGTAG	1.1
GCACCGACGC	2.81
GCACCGCTTT	1.08
GCACGCCCTA	1.06
GCACGCCTTG	1.15
GCACGCGCTC	1.05
GCACGCTCAG	1.03
GCACGCTCTA	1.09
GCACGGACGA	1.27
GCACGGCCAT	1.08
GCACGGGTA	0.995
GCACGTAACG	1.11
GCACTATTTT	0.981
GCACTCGAGT	0.996
GCACTGATAT	1.06
GCACTGGGTA	1.01
GCACTTAAAT	0.994
GCACTTATGT	0.996
GCACTTCGTA	0.986
GCACTTCTTG	1.01
GCAGAAAAGT	1.01
GCAGAACCTA	1.04
GCAGAATCTG	0.966
GCAGAGCCAG	0.978

Sequence	switch fluorescence ratio
GCAGCACCAT	1.12
GCAGCAGAGC	1.28
GCAGCAGTCT	1.08
GCAGCCGTAG	1.03
GCAGCCGTGG	1.01
GCAGCGTATG	0.994
GCAGCGTTTG	0.987
GCAGCTATGG	1.68
GCAGCTGCTG	1.01
GCAGCTTTCC	1.48
GCAGGAGGA	0.957
GCAGGATTGT	0.994
GCAGGGATAG	1.09
GCAGGGCGGT	1
GCAGGGGATG	0.97
GCAGGTATAG	1.02
GCAGGTTAGA	1
GCAGGTTCCT	1.03
GCAGTAGAC	1.41
GCAGTATCGT	0.982
GCAGTGCAGC	0.972
GCAGTGGAAC	1.06
GCAGTGGATA	0.994
GCAGTTAGAC	1.38
GCAGTTTTGC	1

Sequence	switch fluorescence ratio
GCATAAAGAA	1.02
GCATAACGGC	0.988
GCATAACTGC	1.07
GCATAATTGA	1.05
GCATACACCA	1.31
GCATACGGCG	1.05
GCATATCATA	0.978
GCATATCGGT	1.01
GCATCCATTG	1.01
GCATCCTTCA	1.45
GCATCGAATT	1.07
GCATCGACGT	1.02
GCATCGTCGT	0.964
GCATCTCTCA	1.04
GCATCTGAAA	1.02
GCATGAAGGA	0.985
GCATGATCTG	1.01
GCATGCCCAT	0.989
GCATGCGCCG	1.05
GCATGCTTGG	1
GCATGGCGGA	1.01
GCATGTATGC	1.02
GCATGTTTGT	0.977
GCATTAACGG	1.04
GCATTAATTG	0.989

Sequence	switch fluorescence ratio
GCATTACCAA	1.08
GCATTACGGA	1.67
GCATTAGCGA	0.992
GCATTCGTAG	0.991
GCATTCTCAG	0.994
GCATTTCGTC	1.01
GCCAAAAGGT	1.01
GCCAAATTCG	0.991
GCCAACCGGG	1
GCCAATATGG	1.02
GCCAATCCGT	0.999
GCCACACTCT	0.971
GCCACCACTG	1.05
GCCACCAGGC	1.04
GCCACCCGCA	1.52
GCCACGGCGG	1.03
GCCACGTCAC	1.83
GCCACTCCTG	1.08
GCCACTCGGC	0.981
GCCACTGCGA	1.15
GCCAGAACCG	1.05
GCCAGACAGT	0.998
GCCAGAGGAC	1.04
GCCAGATTTG	0.994
GCCAGGATTC	1.04
